From a collection of fitness landscapes (doi:10.1016/j.celrep.2020.107928)
The full ranking holds about 81,000 sequences; the median of “one-hybrid fitness for binding NBS DNA” is about -0.1, and the highest 2% start at about 0.36. Some of the results follow.

B1: Caulobacter ParB omega fusion; a variant is named by its letters at X, in order, B8GW30 (parent)
chain: MESVVVGEPGMSEGRRGLGRGLSALLGEVDAAPAQAPGEQLGGSREAPIEILQRNPDQPRRTFREEDLEDLSNSIREKGVLQPILVRPSPDTAGEYQIVAGERAWRAAQRAGLKTVPIMVRELDDLAVLEIGIIENVQRADLNVLEEALSYKVLMEKFERTQENIAQTIGKSXSHVANXMRLLXLPDEVQSYLVSGELTAXHARAIAAAADPVALAKQIIEGGLSVRETEALARKAPNLSAGKSKGGRPPRVKDTDTQALESDLSSVLGLDVSIDHRGSTGTLTITYATLEQLDDLCNRLTRGI

Variants of: B1
Assay: one-hybrid fitness for binding NBS DNA (the Noc-binding site; scaled: cognate 1, non-cognate 0); higher = stronger binding
Settings: with NBS DNA site
Outline: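 Caulobacter ParB libraries with four specificity codons randomised were screened by bacterial one-hybrid selection in the E. coli USO strain, using a HIS3 reporter whose site lies 19 bp from the promoter. Selection ran for 48 hours at 37°C on M9 lacking histidine, with 0.1 mM IPTG and 5 mM 3-AT. Plasmids were Illumina-sequenced before and after selection, three replicate libraries were pooled, and variants with under 10 reads were dropped. Fitness is the log change in each variant's read ratio to wild type, rescaled against the cognate and non-cognate sites.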

one-hybrid fitness for binding NBS DNA, 0.539:
QKRA

one-hybrid fitness for binding NBS DNA, 0.301:
RKGH

one-hybrid fitness for binding NBS DNA, 0.436:
RCLT

one-hybrid fitness for binding NBS DNA, 0.363:
RHMT

one-hybrid fitness for binding NBS DNA, 0.259:
QWVR

one-hybrid fitness for binding NBS DNA, 0.212:
QMNY

one-hybrid fitness for binding NBS DNA, 0.273:
RRQM

one-hybrid fitness for binding NBS DNA, 0.416:
QHKK

one-hybrid fitness for binding NBS DNA, 0.392:
QAKM

one-hybrid fitness for binding NBS DNA, 0.43:
RYAR

one-hybrid fitness for binding NBS DNA, 0.438:
RSAR

one-hybrid fitness for binding NBS DNA, 0.39:
RTVS

one-hybrid fitness for binding NBS DNA, 0.209:
LRVV

one-hybrid fitness for binding NBS DNA, 0.891:
QTRT

one-hybrid fitness for binding NBS DNA, 0.336:
QQKP

one-hybrid fitness for binding NBS DNA, 0.618:
RRRN

one-hybrid fitness for binding NBS DNA, ≤ 0.2:
SKSN
FTHL
FCPG
FALV
VQFL
KHYC
GTIR
PSAF
ERVF
LVTQ
PPRW
CVNW
GVLV
FSAS
ETSI
PFLD
WSWL
ETLG
RYLG
RVWA
QNWT
KVEE
DESI
EAGA
DDTL
YQKR
IGPS
YFTC
KITW
FQSN
EDMR
YQMG
TIHF
RWGN
GDGR
NEGY
EFDL
THPS
AMTC
DGNP
TANL
PEDT
KPVV
LQKD
LRIM
STMG
RGAA
ATPN
APWC
LGDQ
FNHR
AIYR
QVAW
SSPM
PVVE
SSNV
ETIM
TRVG
WCKT
HIQG
ESPS
TMWS
GPIC
WING
QPRW
HARR
RLYA
TIKA
RVLF
CCYG
TFSW
RARN
FCLC
CGLK
TSQQ
CKKC
WKKG
HMWS
VERP
TDLS
RTKD
TYPC
LNES
EYHC
PYKT
HTHP
YLAQ
VQYG
MRMM
CDMS
HRPI
HELN
QPPG
SHRE
EDKF
RGNR
YGTF
LLCM
NMFI
RYEA
QYVL
RNMR
GNVC
QNMW
GKNC
WGFP
QDEN
VAMM
YECS
RFDC
HGNL
AHET
PSNL
DPDS
RVIP
MVLN
PPGT
DFCR
DTVS
YSPC
VTVY
TWVR
FWKS
TDMC
AYHT
PVAS
TGPK
EKNG
NGTC
KWKD
NRKF
SCTR
TNEV
FTMR
AYSH
RWRI
TTQQ
YDSN
RVPH
TQLV
PMQV
FTAL
IASC
RYVC
LIRD
KLLY
ALLQ
TPFW
VLIK
RSSA
WPNG
PDTQ
SRWV
GSHR
WYGS
RLQA
MRIC
VSAE
DAIE
LDKA
LNVW
YDRT
LPTM
RNQM
MSFR
KAHD
HMPD
TSQK
NGII
QSEK
HHYS
YWHI
VSCW
VTFY
KIWG
HLTC
DRGR
TISA
RTIG
RMDC
YNKA
GAWS
QVIL
ADRW
NMRV
ASSN
NCKG
SLHT
PTSR
KAAE
VSSH
NQNV
RADG
VEGR
YSIR
GGKY
FFSI
YLER
EHAD
RHCF
GSQS
PPVN
KNTF
PPLM
DTLC
DSHS
TSWR
GCLL
EGSG
KGYR
FYLG
PSAD
ARNN
GWLS
LSYT
DKKL
TGPN
EQYT
SRYA
TTIF
FPHP
PRWC
HKCC
QMDV
EKPP
TCVT
WKMG
YWRG
QNSE
NGES
RFFN
HEAR
QVWC
TSTP
GRGT
CILY
KGPV
YSFR
RNAC
TLTY
MTPL
RDPT
AIYY
VWLF
RYKK
TAPA
REQS
SAAT
CRWF
QIYV
FAGT
TEHR
CFQS
VTNI
VKIY
KDSF
ARYG
HCVG
VPQN
AMKL
YLSA
KLSF
QTEP
MDVR
DNWE
KAKV
SHTR
KTNK
CHPI
IWLD
WSSD
ACKG
RAHG
FLSD
CMYS
SSCH
PPND
PLRW
GYAL
MPQR
RMTD
SVLK
TQMG
PHTE
YLPI
HSMF
KRLI
WHDG
ESNP
VNHL
